The whole screen tested about 410,000 compounds, of which about 260 (0.063%) were called active. Inconclusive results, whose numbers are uncertain, are shown with a selection of clear calls. The call rests on the fitted dose curve; in most records, active means well fitted activation curve with a large enough effect; inconclusive means small, poorly fitted or top-dose-only effect; inactive means no such curve, though single readings can be large or run the other way. Potencies of inconclusive entries are left out as doubtful fits.
Assay: qHTS for compounds that reverse cellular toxicity of Amyloid beta (A-beta) peptide in yeast: Primary Screen; further: nearly all actives have a fitted effect of over 55% in size
Details: yeast expressing A-beta42, growth rescue, OD600, 48 h; growth rescue: at 46.1 µM (top of the series), 0% DMSO, 100% iron-clioquinol control
In short: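 Yeast growth medium received pinned compounds, then yeast cells expressing toxic A-beta were added; plates incubated at 30 C for 48 hr. Growth read as absorbance at 600 nm, normalized to DMSO and equimolar FeCl3 plus clioquinol controls.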
Potency means the concentration at half of the fitted maximal effect; tags describe the fitted curve by direction and shape.

SMILES | Potency
Cc1ccccc1NC(=O)c1c(Cl)nc(C)c(Cl)c1C | inactive
CC(=O)c1cccc(NC(=S)N2CCC(Cc3ccccc3)CC2)c1 | inconclusive [activator, single point]
Cc1cccc(C)c1NC(=O)CCCSc1nnc(-c2ccc(F)cc2)n1-c1ccccc1 | inconclusive [activator, partial curve, poor fit]
CCCCCCCCCCn1cc(C(C)=O)c(=O)[nH]c1=O | inactive
O=C(Nc1nnc(-c2ccco2)o1)c1ccc(Cl)cc1 | inconclusive [activator, partial curve, poor fit]
Cc1ccc(S(=O)(=O)N2CCN(C(=O)CN3CCCSc4ccccc43)CC2)cc1 | inconclusive [activator, full curve, poor fit]
CCOC(=O)N/N=C/c1ccc(Oc2ccccc2)cc1 | inconclusive [activator, partial curve, poor fit]
O=C(COc1cccc(C(F)(F)F)c1)N1CCN(c2ccccc2O)CC1 | inconclusive [activator, single point]
Cc1ccccc1CNC(=O)C(=O)NCC(c1ccc2c(c1)OCO2)N1CCOCC1 (stereo unspecified) | inconclusive [activator, single point]
COc1cc(/C=C/C(=O)OCC(=O)Nc2ccc(C)c(S(=O)(=O)N3CCCCC3)c2)ccc1O | inactive
CCCNC(=O)C1(C)CCCN(C(=O)c2cc3ccccc3s2)C1 (stereo unspecified) | inactive
Cc1cn(C)c(CC(=O)N2CCN(c3ccccc3F)CC2)c1C(=O)O | inactive
O=S(=O)(c1ccc(Cl)cc1)c1nnn2c1nc(N1CCCCC1)c1sccc12 | inactive
O=C(CSc1nc(O)c(Cc2ccccc2)c(=O)[nH]1)c1ccccc1 | inactive
Cn1nccc1NC(=O)Nc1cccc([N+](=O)[O-])c1 | inconclusive [activator, single point]
Cc1cc(C)n2[nH]c(=O)c(N=Nc3ccccc3)c2n1 | inactive
CCOC(=O)c1ccc(NC(=S)NC(=O)C2CCCC2)cc1 | inconclusive [activator, full curve]
O=C(c1cc2nc(-c3ccc(Cl)cc3)cc(C(F)(F)F)n2n1)N1CCOCC1 | inconclusive [activator, single point]
CCc1ccccc1OCC(=O)Nc1ccc(C)c(S(=O)(=O)N2CCCCCC2)c1 | inconclusive [activator, partial curve, poor fit]
CCCCCC1CCC(c2n[nH]c(=S)n2C)CC1 (stereo unspecified) | inconclusive [activator, single point]
CC(NC(=S)NC1CCCCC1)c1ccccc1 (stereo unspecified) | inconclusive [activator, single point]
Oc1ccc(NCc2ccc(OCc3ccccc3Cl)cc2)cc1 | inactive
Cc1ccc(CNC(=O)CO/N=C/c2ccc3c(c2)OCO3)cc1 | inactive

SMILES | Potency
CCOc1ccc2nc(NC(=O)CSc3nc(SC)ns3)sc2c1 | inactive
Cc1cc(NC(=O)c2ccc([N+](=O)[O-])cc2)n(C)n1 | inconclusive [activator, single point]
Cc1ccc(-c2nc(NCc3ccc(F)cc3)n(S(C)(=O)=O)n2)cc1 | inconclusive [activator, partial curve]
CC(=O)Oc1ccc(-c2nc3cc(Cl)ccc3c(=O)o2)cc1 | inactive
CCOc1ccc(CCNC(=O)c2[nH]c3cc(OC)ccc3c2Sc2ccccc2)cc1OCC | inactive
CC(C)c1ccc(C=NNc2ccc([N+](=O)[O-])cn2)cc1 | inconclusive [activator, single point]
O=C(COC(=O)CCCOc1ccc(Cl)cc1Cl)NCc1ccc(F)cc1 | inconclusive [activator, partial curve, poor fit]
CCCCCn1c(N2CCN(Cc3ccccc3)CC2)nc2c1c(=O)[nH]c(=O)n2C | inconclusive [activator, partial curve, poor fit]
Cc1nn(-c2ccc(N3CCCC3)nn2)c(C)c1CCC(=O)NCc1ccc(OC(C)C)cc1 | inactive
COCCCN=Cc1c(-c2ccccc2)[nH]n(-c2nc3ccccc3s2)c1=O | inconclusive [activator, single point]
COc1ccc(CNC(=S)N/N=C(/C)c2ccccc2)cc1 | inconclusive [activator, full curve, poor fit]
Cc1nc(NS(=O)(=O)c2ccccc2)sc1NC(=O)OCCN(C)C | inconclusive [activator, single point]
CCN(CC)S(=O)(=O)c1ccc(C(=O)NCCSc2c(-c3ccc(OC)cc3)[nH]c3ccccc23)cc1 | inactive
O=C(c1cccnc1)N1CCN(Cc2ccccc2Br)CC1 | inactive
O=C(NCc1ccco1)c1ccc(Cn2c(=O)c3sccc3n(Cc3cccc(F)c3)c2=O)cc1 | inconclusive [activator, full curve, poor fit]
CC(=O)c1ccc(OC(=O)Cc2cccc3ccccc23)cc1 | inconclusive [activator, partial curve, poor fit]
CCC1CCCCN1C(=S)NC1CCCCC1 (stereo unspecified) | inconclusive [activator, single point]
COC(=O)C1=CN(c2ccc(OC)cc2)C(N)=C(C#N)C1c1ccc(OC)cc1 (stereo unspecified) | inactive
O=C(COc1cccc(F)c1)Nc1nc(-c2ccccn2)cs1 | inconclusive [activator, single point]
CCn1c(CN2CCCCC2)nc2cc(NC(=O)c3ccc([N+](=O)[O-])cc3)ccc21 | inactive
CC(C)c1nnc(NC(=O)Cc2ccc(Br)cc2)s1 | inconclusive [activator, partial curve, poor fit]
CC(=O)Nc1ccc(S(=O)(=O)NCCC(=O)OC(C)C(=O)c2ccc(C)cc2)cc1 (stereo unspecified) | inactive
O=C(COC(=O)c1cncc(Br)c1)NCC12CC3CC(CC(C3)C1)C2 | inconclusive [activator, partial curve]

— PubChem BioAssay AID1347071 (National Center for Advancing Translational Sciences (NCATS), 2019)
